Test results as given in PubChem BioAssay AID504832 (National Center for Advancing Translational Sciences (NCATS), 2011).
Hit rate of the full screen: of about 310,000 compounds, about 18,000 (5.8%) were called active. This list was built around the results that the source calls inconclusive (neither active nor inactive); the mix of calls is not that of the screen. Calls come from the whole dose curve; as a rule, active = well fitted inhibition curve with a large enough effect; inconclusive = small, poorly fitted or top-dose-only effect, or another doubt; inactive = no such curve, though single readings can be large or run the other way. No potency is given beside an inconclusive call; the fits are too rough.
% is set by controls: 0 for no effect and ±100 for the full control effect; potency is the fitted concentration of half-maximal effect; tags give direction and shape of the fitted curve.

Assay: Primary qHTS for delayed death inhibitors of the malarial parasite plastid, 48 hour incubation
Details: P. falciparum luciferase growth in erythrocytes; series mostly up to 28.7 µM; activity change, negative = inhibition: at the top concentration
Method in brief: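 Read-out is firefly luciferase luminescence from an integrated reporter in P. falciparum, so falling signal marks reduced parasite growth. Infected erythrocytes were at 2% hematocrit and 0.1% parasitemia (final) in Albumax-supplemented RPMI 1640.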
With O=[N+]([O-])c1ccc(-c2nnc(-c3ccccc3)c(NCCCO)n2)cc1 the Potency was inconclusive [inhibitor, partial curve].
With O=C(NCc1ccccc1CN1CCCC1)c1cccc(S(=O)(=O)N2CCCC2)c1 the Potency was inconclusive [inhibitor, partial curve].
In the case of CCOc1ccc(S(=O)(=O)Nc2cc(S(=O)(=O)N(CC)CC)ccc2N2CCCC2)cc1, the Potency is reported as active: 7.38 µM.
For O=C(c1ccc(Br)o1)N1CCN(C/C=C/c2ccccc2)CC1, the Potency was inconclusive [inhibitor, partial curve, poor fit].
With CC(=O)NCC1CCCN(Cc2cn(-c3ccccc3F)nc2-c2cc(C)sc2C)C1 (centres undefined) the Potency was inconclusive [inhibitor, single point].
For CCn1c(SCC(=O)N/N=C/c2ccc(C)o2)nnc1-c1ccc(C)cc1, the “activity change, negative = inhibition” value was inactive: 7.55%.
With Cn1c(COc2ccccc2)nnc1SCC(=O)NC1CCCC1 the “activity change, negative = inhibition” value was inactive: 3.29%.
With CCC(C(=O)NCC1CCCO1)N(Cc1ccc(F)cc1)C(=O)CNS(=O)(=O)c1ccccc1 (centres undefined) the “activity change, negative = inhibition” value was inactive: 0%.
With CCOc1ccc(CN2CCC(n3nccc3NC(=O)CCCc3ccccc3)CC2)cc1 the Potency was inconclusive [inhibitor, partial curve, poor fit].
In the case of CC(=O)c1cccc(NC(=O)c2cccc(N3C(=O)c4ccccc4C3=O)c2)c1, the Potency is reported as inconclusive [inhibitor, single point].
In the case of O=C1CSCN1c1ccc(Cl)c(Cl)c1, the “activity change, negative = inhibition” value is reported as inactive: 3.46%.
In the case of C/C(=N/OC(=O)C1CC1)c1cc(-c2ccc(Cl)cc2)no1, the “activity change, negative = inhibition” value is reported as inactive: 325%.
For COc1ccc2c(c1)[nH]c1c(=O)n(CCN(C)C)cnc12, the “activity change, negative = inhibition” value was inactive: 29.7%.
With CCOc1ccccc1NC(=O)Nc1ccc2c(c1)OCO2 the “activity change, negative = inhibition” value was inactive: 22.6%.
With O=C(c1ccc(O)cc1)c1ccc(C(=O)c2ccc(O)cc2)cc1 the Potency was inconclusive [inhibitor, single point].
In the case of Cc1ccc(S(=O)(=O)N2CCCC(C(=O)N3CCCc4ccccc43)C2)cc1 (centres undefined), the Potency is reported as inconclusive [inhibitor, single point].
For Cc1ccc(NS(=O)(=O)c2cc([N+](=O)[O-])ccc2NNC(=S)Nc2cc(C)ccc2C)c(C)c1, the Potency was active: 14.7 µM.
In the case of O=C1CC(c2ccco2)Cc2nc(Nc3nc(-c4ccccc4)c4ccccc4n3)ncc21 (centres undefined), the “activity change, negative = inhibition” value is reported as inactive: -20.6%.
In the case of CCOC(=O)C1(CCOc2ccccc2)CCN(Cc2cccc3c2OCO3)CC1, the Potency is reported as inconclusive [inhibitor, single point].
For CN(C)S(=O)(=O)c1ccc(N2CCCC2)c(C(=O)Nc2ccc(Br)cc2F)c1, the Potency was active: 5.22 µM.
With COc1ccc(-c2cc(C(=O)NCCCN3CCOCC3)no2)cc1 the “activity change, negative = inhibition” value was inactive: 1.35%.
In the case of CCN1CCc2c(sc(N)c2C#N)C1, the Potency is reported as inconclusive [inhibitor, single point].
For CCOc1ccc(N(CC)C(=O)COc2cc(=O)n(C)c3ccccc23)cc1, the Potency was inconclusive [inhibitor, partial curve].
In the case of CCOc1ccc(-c2n[nH]c(=S)c3ccccc23)cc1, the Potency is reported as inconclusive [inhibitor, single point].
For CCOc1ccc(S(=O)(=O)N(CC)CC)cc1NS(=O)(=O)c1ccc(F)c(F)c1F, the “activity change, negative = inhibition” value was inactive: 32.3%.
With COc1ccccc1NC1=Nc2cccc3cccc1c23 the “activity change, negative = inhibition” value was inactive: 22.7%.
For NC(=O)CN1C(=O)C(O)(CC(=O)/C=C\c2ccc3c(c2)OCO3)c2ccccc21 (centres undefined), the Potency was inconclusive [inhibitor, partial curve, poor fit].
With COC(=O)C(CC(C)C)NC(=O)/C=C/c1ccc(Cl)cc1 (centres undefined) the Potency was inconclusive [inhibitor, partial curve].
With Cc1cccc2cc(CN(Cc3nnnn3C3CCCCC3)C3CCCC3)c3nnnn3c12 the Potency was active: 11.7 µM.
In the case of CCCn1nc2cc(C(=O)NCC34CC5CC(CC(C5)C3)C4)ccc2c1OCC, the Potency is reported as active: 11.7 µM.
For CCO/C=C/C(O)(CNC(=O)c1ccc(C(C)(C)C)cc1)C(F)(F)F (centres undefined), the “activity change, negative = inhibition” value was inactive: -25.1%.
With COc1ccc(CCN(C)Cc2c(O)ccc3cc(Br)ccc23)cc1OC the Potency was inconclusive [inhibitor, single point].
For COc1cc(/C=C/c2ccc3cccc(O)c3n2)c(Br)cc1O, the Potency was inconclusive [inhibitor, single point].
With COc1ccc(-c2noc(CN(C(=O)c3ccc(OC(C)=O)cc3)C(C)C)n2)cc1OC the Potency was inconclusive [inhibitor, partial curve, poor fit].
With NC(=O)[C@@H]1[C@@H]2C(=O)N(c3ccc(F)cc3)C(=O)[C@@H]2[C@H]2C=Cc3ccccc3N21 the Potency was inconclusive [inhibitor, partial curve].
With Cc1ccc2nc(/C(C#N)=C\c3ccc(OC(=O)c4cccs4)cc3)[nH]c2c1 the Potency was inconclusive [inhibitor, single point].
With S=C(c1ccc(Br)cc1)N1CCN(Cc2ccccc2)CC1 the “activity change, negative = inhibition” value was inactive: 25.8%.
In the case of O=S(=O)(/N=C(/Nc1cc(N2CCOCC2)ncn1)c1ccc(F)cc1)c1ccccc1, the “activity change, negative = inhibition” value is reported as inactive: 0.345%.
In the case of CCCCN(C)C(=O)c1cccc(OC2CCN(CC(C)(C)C)CC2)c1, the Potency is reported as inconclusive [inhibitor, partial curve, poor fit].
In the case of O=C(CC12CC3CC(CC(C3)C1)C2)Nc1ccccc1N1CCOCC1, the Potency is reported as inconclusive [inhibitor, single point].
In the case of Cc1cccc(OCC(=O)NNC(=O)c2cc(S(=O)(=O)N(C)C)ccc2N2CCCC2)c1, the Potency is reported as inconclusive [inhibitor, single point].
For CC(C)Oc1cccc(C(=O)C2CCCN(C(=O)c3cc(C(F)(F)F)[nH]n3)C2)c1 (centres undefined), the Potency was inconclusive [inhibitor, single point].
With COc1cc(C(=O)Nc2ccc(NC(=O)c3ccco3)nc2)cc(OC)c1OC the Potency was inconclusive [inhibitor, single point].
With COc1ccc(/C=C2/C(=N)N3N=C(CC(=O)N4CCCC4)SC3=NC2=O)cc1OC the “activity change, negative = inhibition” value was inactive: 15.7%.
For CC(C)c1nc(N2CCCC2)c(C#N)c2c1CCCC2, the Potency was inconclusive [inhibitor, partial curve, poor fit].
For Cc1ccc(S(=O)(=O)Nc2ccc3ncccc3c2)cc1, the “activity change, negative = inhibition” value was inactive: 12.7%.
With COc1ccc(/C=N/Nc2cc(C)nc(-n3nc(C)cc3C)n2)cc1 the Potency was active: 1.47 µM.
In the case of COCCNC(=O)CN(Cc1ccc2c(c1)OCO2)C(=O)CCC(=O)Nc1nccs1, the “activity change, negative = inhibition” value is reported as inactive: 10.7%.
For COc1cc(-c2nc3n(c(=O)c2C#N)CCS3)cc(OC)c1OC, the Potency was inconclusive [inhibitor, single point].
For O=C(CN(C(=O)Cn1nnc(-c2ccc(F)cc2)n1)c1cccc(F)c1)NC1CCCC1, the Potency was inconclusive [inhibitor, single point].
With Cc1ccc(SCc2cc(-c3ccc(Cl)cc3)no2)cc1 the “activity change, negative = inhibition” value was inactive: -4.42%.
With CC(C)(C)NC(=O)COc1ccccc1C#N the Potency was inconclusive [inhibitor, partial curve, poor fit].
For Cc1cccc(N2CC(C(=O)Nc3nnc(SCC(=O)N4CCOCC4)s3)CC2=O)c1 (centres undefined), the Potency was inconclusive [inhibitor, partial curve, poor fit].
In the case of CCOc1cc(/C=N/NC(=O)c2ccccc2OCc2ccc(F)cc2)ccc1O, the Potency is reported as active: 8.28 µM.
With CCn1c(CNC(=O)COc2ccc(C(C)C)cc2)nnc1SCC(=O)NC1CCCCC1C (centres undefined) the Potency was active: 11.7 µM.
In the case of CCCCCC(=O)NNC(=S)NC(=O)c1ccccc1[N+](=O)[O-], the Potency is reported as inconclusive [inhibitor, partial curve].
In the case of COc1ccccc1NC(=O)Cn1c(O)c(N=NC(=O)c2ccccc2O)c2ccccc21, the “activity change, negative = inhibition” value is reported as inactive: 7.14%.
For O=C(O)c1ccccc1-c1ccc(/C=C/c2cc(C(F)(F)F)[nH]c(=O)n2)o1, the “activity change, negative = inhibition” value was inactive: 5.19%.
For COc1ccc(N2CCN(C(=O)c3cc(-c4cccs4)nc4ccccc34)CC2)cc1, the Potency was inconclusive [inhibitor, partial curve, poor fit].
In the case of COc1ccc(-n2c(SCC(=O)NNC(=O)c3ccccc3C)nnc2-c2ccncc2)cc1, the Potency is reported as inconclusive [inhibitor, single point].
For CCOc1ccc(N2C(=O)S/C(=C\c3cc(OC)c(OC)c(OC)c3)C2=O)cc1, the Potency was inconclusive [inhibitor, partial curve, poor fit].
In the case of COc1ccccc1C(CNC(=O)c1cccc(NS(=O)(=O)c2ccc(C)c(F)c2)c1)N1CCCC1 (centres undefined), the Potency is reported as active: 13.1 µM.
For CC(C(=O)c1ccc2ccccc2c1)N1CCCCC1 (centres undefined), the Potency was inconclusive [inhibitor, partial curve, poor fit].
With CCc1nc2ccc(C)cc2c(C(=O)Oc2cccc3cccnc23)c1C the Potency was inconclusive [inhibitor, single point].
With CCn1cc(C(=O)NCC(C)C)c(=O)c2cc(F)c(N3CCN(C(=O)c4ccco4)CC3)cc21 the Potency was active: 4.15 µM.
With CC(=O)NCCC(=O)Nc1ncc(S(=O)(=O)c2ccc([N+](=O)[O-])cc2)s1 the Potency was inconclusive [inhibitor, single point].
With CC(Sc1nc(N)cc(=O)[nH]1)C(=O)Nc1sc2c(c1C#N)CCCC2 (centres undefined) the “activity change, negative = inhibition” value was inactive: -0.266%.
In the case of COC(=O)[C@@]1(Cc2ccc(F)cc2)[C@H]2c3cc(C(=O)N(C)C)n(Cc4nc5ccccc5[nH]4)c3C[C@H]2CN1C(=O)c1ccccc1, the Potency is reported as active: 1.47 µM.
For CCN(CC)S(=O)(=O)c1ccc(C)c(NC(=S)N2CCN(C/C=C/c3ccccc3)CC2)c1, the Potency was inconclusive [inhibitor, partial curve].
